From ChEMBL document CHEMBL4813913, “In vitro identification of imidazo[1,2-a]pyrazine-based antileishmanial agents and evaluation of L. major casein kinase 1 inhibition” (Eur J Med Chem, 2021)

How the values were obtained:
[1] = Toxicity against Galleria mellonella larva assessed as reduction of viability at 50 mg/kg measured for 7 days; type: organism-based; conditions: in vivo, 168 h, time 7 day
Method in brief: (§1)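 G. mellonella larvae (6th stage, 260–320 mg), groups of ten. Injected in the 4th left pro-leg with 10 μL at 10–50 mg/kg; controls got PBS/DMSO (DMSO <40%). Kept in the dark at 37 °C. Survival and cuticular darkening scored daily for 7 days; death taken as no movement on stimulus. Kaplan-Meier with log-rank test; two independent experiments.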

[2] = Cytotoxicity against human MRC5 cells assessed as reduction in cell viability measured after 96 hrs by resazurin assay; type: cell-based
Method in brief: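 Human MRC-5 fibroblasts grown in RPMI 1640 with 10% FBS. Exposed to 100, 10 and 1 μM in triplicate for 96 h. Then 10 μL of 700 μM resazurin added for 4 h and fluorescence read. Value is the mean of triplicates.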

[3] = Inhibition of recombinant Leishmania major CK1.2 expressed in bacterial expression system using RRKHAAIGSpAYSITA as substrate in presence of ATP measured after 30 mins by ADP-Glo assay
[4] = Cytotoxicity against mouse RAW264.7 cells assessed as reduction in cell growth measured after 48 hrs by SYBR Green 1 dye based fluorescence assay
Method in brief: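 RAW 264.7 cells seeded at 100,000 cells/well in DMEM with 10% FBS, 24 h at 37 °C, 5% CO₂. Two-fold serial dilutions, final 49 nM–100 μM, for 48 h. Growth read by SYBR Green I. CC50 by nonlinear regression. Miltefosine reference; untreated cells as growth control.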

[5] = target: Receptor-interacting serine/threonine-protein kinase 3 (Homo sapiens, UniProt Q9Y572); experiment: Inhibition of recombinant human RIPK3 expressed in baculovirus infected Sf9 cells using MBP as substrate in presence of ATP measured after 30 mins by ADP-Glo assay; type: ADME; conditions: sf9, 0.5 h
[6] = system: Leishmania major; experiment: Antileishmanial activity against amastigote stage of Leishmania major (MHOM/IL/81/BNI) infected in BALB/c mouse peritoneal macrophages assessed as reduction in parasitic proliferation measured after 4 days by MayGrunwald-Giemsa stain based microscopic method; type: functional, organism-based; conditions: Peritoneal macrophage, 96 h
Method in brief: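 BALB/c peritoneal macrophages on glass slides, 1.5×10⁵ cells/mL in RPMI 1640 with 15% FBS, 24 h attachment. Infected with stationary-phase promastigotes (1.5×10⁶/mL) for 24 h at 37 °C, 5% CO₂. Washed, then exposed 4 days to 100, 10, 1, 0.1 μM (DMSO ≤1% final). Methanol-fixed, May-Grunwald-Giemsa stained, amastigotes counted in 100 macrophages per duplicate well. IC50 from amastigotes/macrophage. Run twice.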

[7] = target: Casein kinase I isoform epsilon (Homo sapiens, UniProt P49674); experiment: Inhibition of recombinant human CK1 epsilon expressed in baculovirus infected Sf9 cells using RRKHAAIGSpAYSITA as substrate; type: ADME
[8] = target: T1, Glycogen synthase kinase-3 (Sus scrofa, UniProt B2LUN4+I6LNT8); experiment: Inhibition of pig brain GSK alpha/beta using YRRAAVPPSPSLSRHSSPHQSpEDEEE as substrate in presence of ATP measured after 30 mins by ADP-Glo assay; type: ADME, tissue-based, Sus scrofa domesticus
[9] = Selectivity index, ratio of CC50 for human MRC5 cells to IC50 for amastigote stage of Leishmania major (MHOM/IL/81/BNI) infected in BALB/c mouse peritoneal macrophages; type: toxicity; conditions: read-out: Ratio CC50/IC50
Method in brief: (§2)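 Selectivity index is CC50 on RAW 264.7 or MRC-5 cells divided by IC50 on intracellular amastigotes.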

[10] = Selectivity index, ratio of CC50 for mouse RAW264.7 cells to IC50 for amastigote stage of Leishmania major (MHOM/IL/81/BNI) infected in BALB/c mouse peritoneal macrophages; type: toxicity; conditions: read-out: Ratio CC50/IC50; method in brief: as §2
[11] = Selectivity index, ratio of CC50 for mouse RAW264.7 cells to IC50 for amastigote stage of Leishmania braziliensis (MHOM/BR/75/M2903b) infected in mouse RAW264.7 cells; type: toxicity, cell-based; conditions: read-out: Ratio CC50/IC50; method in brief: as §2
[12] = target: T2, Serine/threonine-protein kinase pim-1 (Homo sapiens, UniProt P11309); experiment: Inhibition of recombinant human PIM1 expressed in bacteria using histone H1 as substrate in presence of [gamma-33P]ATP by radiometric assay; type: ADME
[13] = target: T1, Glycogen synthase kinase-3; experiment: Inhibition of pig brain GSK alpha/beta using YRRAAVPPSPSLSRHSSPHQSpEDEEE as substrate in presence of [gamma-33P]ATP by radiometric assay; type: ADME, Sus scrofa domesticus
[14] = target: T3, CDK2/Cyclin A2 (Homo sapiens, UniProt P24941); experiment: Inhibition of human CDK2/ cyclinA using histone H1 as substrate in presence of [gamma-33P]ATP by radiometric assay; type: ADME, protein-complex assay
[15] = target: T4, Cyclin-dependent kinase 5/CDK5 activator 1 (Homo sapiens, UniProt Q00535); experiment: Inhibition of human recombinant CDK5/ p25 expressed in bacterial expression system using histone H1 as substrate in presence of [gamma-33P]ATP by radiometric assay; type: ADME
[16] = target: T5, Dual specificity protein kinase CLK1 (Mus musculus, UniProt P22518); experiment: Inhibition of recombinant mouse CLK1 expressed in bacteria using GRSRSRSRSRSR as substrate in presence of [gamma-33P]ATP by radiometric assay; type: ADME
[17] = target: Dual specificity tyrosine-phosphorylation-regulated kinase 1A (Rattus norvegicus, UniProt Q63470); experiment: Inhibition of recombinant rat DYRK1A (1 to 499 ) expressed in bacterial expression system using KKISGRLSPIMTEQ as substrate in presence of ATP measured after 30 mins by ADP-Glo assay; conditions: 0.5 h
[18] = system: Leishmania infantum; experiment: Antileishmanial activity against amastigote stage of Leishmania infantum (MHOM/FR/2008/LEM5700) infected in mouse RAW264.7 cells assessed as reduction in parasitic proliferation measured by SYBR Green 1 dye based fluorescence assay; type: functional, organism-based; conditions: MHOM/FR/2008/LEM5700, RAW264.7
Method in brief: (§3)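 RAW 264.7 macrophages seeded at 100,000 cells/well in DMEM with 10% heat-inactivated FBS, 24 h at 37 °C, 5% CO₂. Infected with plateau-phase promastigotes (parasite:macrophage 16:1) for 24 h. Compounds serially diluted, final 391 nM–100 μM. Amastigote viability read by SYBR Green I after lysis and 3 freeze-thaw cycles. IC50 by nonlinear regression against excipient-treated controls. Miltefosine reference.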

[19] = target: T4, Cyclin-dependent kinase 5/CDK5 activator 1; experiment: Inhibition of human recombinant CDK5/ p25 expressed in bacterial expression system using histone H1 as substrate in presence of ATP measured after 30 mins by ADP-Glo assay
[20] = target: T3, CDK2/Cyclin A2; experiment: Inhibition of human CDK2/ cyclinA using histone H1 as substrate in presence of ATP measured after 30 mins by ADP-Glo assay; type: protein-complex assay
[21] = target: T2, Serine/threonine-protein kinase pim-1; experiment: Inhibition of recombinant human PIM1 expressed in bacteria using histone H1 as substrate in presence of ATP measured after 30 mins by ADP-Glo assay; conditions: 0.5 h
[22] = target: T5, Dual specificity protein kinase CLK1; experiment: Inhibition of recombinant mouse CLK1 expressed in bacteria using GRSRSRSRSRSR as substrate in presence of ATP measured after 30 mins by ADP-Glo assay
[23] = system: Leishmania braziliensis; experiment: Antileishmanial activity against amastigote stage of Leishmania braziliensis (MHOM/BR/75/M2903b) infected in mouse RAW264.7 cells assessed as reduction in parasitic proliferation measured by SYBR Green 1 dye based fluorescence assay; type: functional, organism-based; method in brief: as §3
[24] = Toxicity against Galleria mellonella larva assessed as cuticular darkening at 50 mg/kg measured for 7 days; type: organism-based; conditions: in vivo, 168 h, time 7 day; method in brief: as §1
[25] = target: CDK9/cyclin T1 (Homo sapiens, UniProt P50750); experiment: Inhibition of human recombinant CDK9/CyclinT expressed in baculovirus infected Sf9 cells using YSPTSPSYSPTSPSYSPTSPSKKK as substrate in presence of ATP measured after 30 mins by ADP-Glo assay
[26] = system: Leishmania amazonensis; experiment: Antileishmanial activity against amastigote stage Leishmania amazonensis (MHOM/BR/73/M2269) infected in mouse RAW264.7 cells assessed as reduction in parasitic proliferation measured by SYBR Green 1 dye based fluorescence assay; type: functional, organism-based; conditions: MHOM/BR/73/M2269, RAW264.7; method in brief: as §3
[27] = target: Aurora kinase B (Homo sapiens, UniProt Q96GD4); experiment: Inhibition of recombinant human AURKB expressed in baculovirus infected Sf9 cells using MBP as substrate in presence of ATP measured after 30 mins by ADP-Glo assay; conditions: sf9, 0.5 h
[28] = system: Leishmania donovani; experiment: Antileishmanial activity against amastigote stage of Leishmania donovani (MHOM/ET/67/HU3) infected in mouse RAW264.7 cells assessed as reduction in parasitic proliferation measured by SYBR Green 1 dye based fluorescence assay; type: functional, organism-based; conditions: MHOM/ET/67/HU3, RAW264.7; method in brief: as §3

Compound | Activity [1] | CC50 at 96 h [2] [µM] | IC50 [3] [µM] | CC50 at 48 h [4] [µM] | inhibition (INH) [5] | IC50 [6] [µM] | IC50 [7] [µM] | IC50 [8] [µM] | selectivity ratio [11] | inhibition (INH) [12] | IC50 [13] [µM] | IC50 [14] [µM] | IC50 [15] [µM] | IC50 [16] [µM] | further results
CN(C)c1nccn2c(-c3ccncc3)c(-c3ccc(F)cc3)nc12 | Non-Toxic | > 100 | 0.72 | 42 | Not Active | 0.8 | 0.92 | > 10 | – | – | – | – | – | – | –
CN(C)c1nccn2c(-c3cncnc3)c(-c3ccc(F)cc3)nc12 | Non-Toxic | > 100 | 29 | 39.1 | Not Active | 33.6 | > 100 | > 10 | 1.7 | – | – | – | – | – | selectivity ratio [9]: > 3; selectivity ratio [10]: 1.2
CSc1nccc(-c2c(-c3ccc(F)cc3)nc3c(Cl)nccn23)n1 | Non-Toxic | 79.9 | – | 49.8 | – | > 100 | > 10 | – | 0.7 | Not Active | > 10 | > 10 | > 10 | > 10 | –
CN(C)c1nccn2c(-c3cccnc3)c(-c3ccc(F)cc3)nc12 | Non-Toxic | 48.9 | > 100 | 43.9 | Not Active | > 50 | > 100 | > 10 | – | – | – | – | – | – | inhibition (INH) [17]: Not Active; IC50 [18]: > 50 µM; IC50 [19]: > 10 µM; IC50 [20]: > 10 µM; inhibition (INH) [21]: Not Active; IC50 [22]: > 10 µM; IC50 [23]: > 50 µM; Activity [24]: Non-Toxic; IC50 [25]: > 10 µM; IC50 [26]: > 50 µM; inhibition (INH) [27]: Not Active; IC50 [28]: > 50 µM
CN(C)c1nccn2c(-c3ccnc(N)n3)c(-c3ccccc3)nc12 | Non-Toxic | 58.4 | – | 44.1 | – | 28.3 | – | – | – | Not Active | > 10 | > 10 | > 10 | 0.59 | –
CN(C)c1nccn2c(-c3ccc4[nH]ncc4c3)c(-c3ccc(F)cc3)nc12 | Non-Toxic | 24.8 | 1.88 | 7.41 | Not Active | > 12.5 | 2.08 | > 10 | – | – | – | – | – | – | –
